Test results taken from article PMC4336329 (PLoS ONE, 2015).
Hit rate of the full screen: of about 310,000 compounds, about 2,200 (0.71%) showed an effect of 50% or more. Effects have a minus sign here. The list shows a part of the results.

target: human ether-à-go-go-related gene (hERG) potassium channel (human, UniProt Q12809); test: primary screen, population patch clamp on CHO cells stably expressing hERG
Sequence (Q12809 whole entry, looked up): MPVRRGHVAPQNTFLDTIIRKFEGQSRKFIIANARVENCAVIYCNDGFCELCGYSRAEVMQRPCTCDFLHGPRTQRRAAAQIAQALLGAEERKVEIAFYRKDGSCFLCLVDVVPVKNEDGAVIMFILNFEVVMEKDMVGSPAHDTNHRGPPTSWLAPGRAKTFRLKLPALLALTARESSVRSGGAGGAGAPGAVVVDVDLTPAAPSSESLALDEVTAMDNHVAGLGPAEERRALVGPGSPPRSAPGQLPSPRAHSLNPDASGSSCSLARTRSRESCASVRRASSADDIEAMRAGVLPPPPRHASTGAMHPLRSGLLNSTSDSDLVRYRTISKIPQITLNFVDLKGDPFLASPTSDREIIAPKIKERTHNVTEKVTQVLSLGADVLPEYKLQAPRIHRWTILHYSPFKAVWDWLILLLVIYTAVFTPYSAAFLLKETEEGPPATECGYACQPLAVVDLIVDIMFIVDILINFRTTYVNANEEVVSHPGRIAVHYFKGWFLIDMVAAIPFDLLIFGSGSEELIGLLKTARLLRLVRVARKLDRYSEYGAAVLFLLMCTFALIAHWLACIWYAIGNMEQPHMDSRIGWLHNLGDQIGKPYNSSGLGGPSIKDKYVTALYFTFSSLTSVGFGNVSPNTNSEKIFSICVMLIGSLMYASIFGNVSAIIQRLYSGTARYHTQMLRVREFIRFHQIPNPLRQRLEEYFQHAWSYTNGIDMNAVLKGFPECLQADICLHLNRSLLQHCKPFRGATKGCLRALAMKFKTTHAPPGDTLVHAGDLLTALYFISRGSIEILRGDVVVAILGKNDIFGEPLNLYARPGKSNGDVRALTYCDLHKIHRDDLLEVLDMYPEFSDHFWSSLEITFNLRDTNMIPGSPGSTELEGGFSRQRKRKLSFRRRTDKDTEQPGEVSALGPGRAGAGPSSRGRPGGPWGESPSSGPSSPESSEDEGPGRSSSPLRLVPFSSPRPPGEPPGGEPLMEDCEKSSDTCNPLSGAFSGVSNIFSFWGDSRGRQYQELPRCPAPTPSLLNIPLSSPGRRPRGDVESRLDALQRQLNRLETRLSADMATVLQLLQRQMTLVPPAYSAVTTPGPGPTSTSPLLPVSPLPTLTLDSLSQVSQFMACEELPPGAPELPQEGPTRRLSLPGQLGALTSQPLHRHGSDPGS

Row | SMILES | hERG current change (%, negative = inhibition) at 1uM
1 | Cc1ccc(C)c(NC(=O)CN(C)C(=O)CSCc2c(C)noc2C)c1 | -6.25%
2 | COc1ccc(C(=O)Nc2c(N)nc(SCC(=O)N3CCC(C)CC3)[nH]c2=O)cc1OC | 11.6%
3 | COc1cc(S(=O)(=O)N2CCOCC2)cc(C(=O)c2nccn2C)c1OC | 16.9%
4 | CC1CCCN(C(=O)Cn2nnc(-c3ccccc3F)n2)C1 (stereo not shown) | 13.2%
5 | COC(=O)c1cc(-c2ccc(Cl)cc2)n(-c2ccc(S(N)(=O)=O)cc2)n1 | 0.875%
6 | NC(=O)C1CCN(C(=O)c2cc3ccccn3n2)CC1 | 3.87%
7 | O=C(NCCCCCCNC(=O)c1ccncc1)c1ccncc1 | 9.73%
8 | COc1cccc(N2CCN(C(=O)CN(C)S(=O)(=O)c3ccc4c(c3)c(=O)n(C)c(=O)n4C)CC2)c1 | 11.1%
9 | Cc1cccc(N2Cc3ccc(Br)cc3C2)c1 | 10.6%
10 | COc1ccccc1-c1cc(C(=O)N2CCc3ccccc3C2)c2ccccc2n1 | 13.2%
11 | COc1cc(/C=C/c2nc(-c3ccccc3O)n[nH]2)cc(OC)c1OC | 14.6%
12 | O=C(CSc1n[nH]c(-c2ccco2)n1)Nc1ccccc1Cl | 12.2%
13 | CCC(Oc1ccccc1F)C(=O)NCCN1CCOCC1 (stereo not shown) | 12.4%
14 | COc1ccc(-c2ccc(OC)c([C@H]3[C@H]4C=CC[C@@H](C)[C@@H]4C(=O)N3Cc3ccccc3)c2)cc1 | 9.57%
15 | Cc1sc(N/N=C/c2cc([N+](=O)[O-])ccc2O)nc1-c1ccccc1 | 13.1%
16 | CCOC(=O)N1CCN(C(=O)C2CCCN(c3nc4ccc(OCC)cc4s3)C2)CC1 (stereo not shown) | -3.97%
17 | O=C(OCc1ccc(Cl)c(Cl)c1)c1cnccn1 | 12.3%
18 | O=c1cnnc(Nc2cccc(C(F)(F)F)c2)[nH]1 | 14.2%
19 | CCOC(=O)c1ccc(CNCc2ccc(Br)cc2)cc1 | -2.21%
20 | Cc1ccc(-n2c(-c3cn(C)nc3C)n[nH]c2=S)cc1 | 18.4%
21 | CC(=O)n1nc(-c2ccccc2)nc1NCc1ccc(F)cc1 | 13.2%
22 | CC1CCc2c(sc3nc(CN4CCN(S(=O)(=O)c5ccccc5[N+](=O)[O-])CC4)[nH]c(=O)c23)C1 (stereo not shown) | -0.366%

Row | SMILES | hERG current change (%, negative = inhibition) at 1uM
23 | Cc1c(C(=O)O)cnc2c([N+](=O)[O-])cnn12 | 21.1%
24 | CC(O)CNCCOc1ccccc1OCc1ccccc1.O=C(O)C(=O)O (stereo not shown) | 14%
25 | CCN(CC)CCNC(=O)c1cn(CC)c2cc(N3CCN(C(=O)c4ccco4)CC3)c(F)cc2c1=O.Cl | 4.66%
26 | O=C(c1ccc(Br)cc1)N1CCN(Cc2ccccc2)CC1 | -9.98%
27 | CC(=O)Nc1ccccc1OCC(O)CS(=O)(=O)c1ccc(C(F)(F)F)cn1 (stereo not shown) | 15%
28 | Cc1cc(C(=O)OC(C)C(=O)NC2CCCCC2)c(C)o1 (stereo not shown) | 8.09%
29 | COc1ccc(NC(=O)C2CCCN2c2ccc(OC)c(OC)c2)cc1OC (stereo not shown) | 13.3%
30 | O=C(COC(=O)C1CC(=O)N(Cc2ccccc2)C1)Nc1ccccc1F (stereo not shown) | 12.4%
31 | CC(C)(C)c1ccc(C(=O)NCC(=O)N2CCNC(=O)C2)cc1 | 1.06%
32 | O=C(Nc1cccc2c1CCCC2)c1ccncc1 | 9.88%
33 | O=C(O)c1cccc(N2C(=O)CSC2=S)c1 | 11.7%
34 | O=C(CCCN1C(=O)[C@H]2CC=CC[C@H]2C1=O)NCc1nc(-c2ccccc2)no1 | 14.9%
35 | COc1ccc(C)cc1NC(=O)CSc1nnc(-c2ccc(Br)cc2)o1 | 0.856%
36 | COc1ccc(C2N=C(c3ccccc3)NO2)cc1OC (stereo not shown) | 12.5%
37 | Cc1ccc(C(=O)COC(=O)c2cccc([N+](=O)[O-])c2)s1 | 2.6%
38 | CCC(=O)N1CCc2cc(S(=O)(=O)CCC(=O)N(C)c3ccc(OC)cc3)ccc21 | 2.07%
39 | Cc1c(NP(=S)(C(C)(C)C)C(C)(C)C)c(=O)n(-c2ccccc2)n1C | 4.41%
40 | Cc1oc(-c2ccccc2Cl)nc1CSc1nc2c(c(=O)[nH]1)CCC2 | 11%
41 | CCC1=NN(C(=O)C(=O)Nc2ccc(Br)cc2)C(O)(C(F)(F)F)C1 (stereo not shown) | 13.1%
42 | CCOC(=O)CC1COCCN1Cc1cn(C)nc1-c1ccccc1F (stereo not shown) | 6.37%
43 | COC(=O)c1ccc(CSc2ccc(S(=O)(=O)N3CCCCC3)cn2)cc1 | 16.9%
